Out of some 420,000 compounds screened, about 64,000 (15%) were called active. Inconclusive results, whose numbers are uncertain, are shown with a selection of clear calls. Calls follow the shape of the dose curve; as a rule, active = well fitted inhibition curve with a large enough effect; inconclusive = small, poorly fitted or top-dose-only effect; inactive = flat fitted curve, though single readings scatter. Potencies of inconclusive entries are left out as doubtful fits.
Assay: qHTS for Inhibitors of human tyrosyl-DNA phosphodiesterase 1 (TDP1): qHTS in cells in absence of CPT; also: nearly all actives have a fitted effect of over 55% in size
Conditions: DT40 Tdp1-/- hTDP1 cells, no CPT, ATP luminescence, 48 h; series mostly up to 46.2 µM
How it was run: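 Seeded 400 DT40-hTDP1 cells/well (vehicle DMSO, no 20 nM CPT); pinned compounds; ≥48 hr at 37 °C; CellTiter-Glo luminescence as viability measure.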
Potency is read from the fitted curve at half-maximal effect; tags tell the direction and shape of the fitted curve.

Structure (SMILES)	Potency
O=C(CNc1cccc2ccccc12)N/N=C/c1ccc[nH]1	inactive
O=C(c1ccccc1Cl)N(Cc1ccco1)c1ccccn1	inconclusive [inhibitor, single point]
Cc1nn(C(C)C(=O)NCCCc2ccccc2)c(=O)c2nn(-c3ccccc3)c(C)c12 (stereo not drawn)	inconclusive [inhibitor, single point]
COC(=O)c1sc2cccc(F)c2c1S(=O)(=O)Nc1ccc(N(C)C)cc1	inactive
O=C(OCC(=O)N1CCN(C(=O)c2ccco2)CC1)c1cc(-c2ccccc2)nc2ccccc12	inconclusive [inhibitor, partial curve, poor fit]
CCS(=O)(=O)c1ncc(Cl)c(C(=O)Nc2ccc(S(=O)(=O)N3CCCC(C)C3)cc2)n1 (stereo not drawn)	active: 2.31 µM
Cc1cc(N2CCN(Cc3cn(C)nc3-c3ccccc3F)CC2)cc(C)n1	active: 5.8 µM
CC(=O)N1N=C(c2ccccc2)CC1c1ccc2c(c1)OCO2 (stereo not drawn)	inconclusive [inhibitor, single point]
Cc1cc(NC2CCCC2)n2nc(C)c(-c3ccccc3)c2n1	inconclusive [inhibitor, single point]
Nc1ccc2nc(-c3ccccc3)cnc2c1	inactive
Cc1cccc(C(CC(=O)N2CCCCC2)c2ccccc2)c1O (stereo not drawn)	inactive
CC(=O)N1CCC2(CC1)OC(=O)C(C)=C2C(=O)Nc1cc(C)ccc1C	inactive
Cc1nc([N+](=O)[O-])cn1CC(=O)c1ccc(Br)cc1	inactive
CCOC(=O)c1cc(-c2ccc(C)o2)n[nH]1	inconclusive [inhibitor, partial curve, poor fit]
CCOC(=O)c1c(NC(=O)C2C3C=CC(C3)C2C(=O)O)sc2c1CCC(CC)C2 (stereo not drawn)	inconclusive [inhibitor, partial curve, poor fit]
Cc1ccc(OCC(=O)Nc2cc(C(C)(C)C)on2)cc1C	inactive
Cc1nc(SCC(=O)Nc2nccs2)c(C#N)c(C)c1C	inconclusive [inhibitor, partial curve]
Nc1c(NCCN2CCOCC2)c2ccccc2oc1=O	active: 9.2 µM
O=C(N/N=C/c1cc(Cl)ccc1O)c1ccncc1	active: 3.26 µM
COc1ccccc1N1C(N)=NC(N)=NC1(C)C	inconclusive [inhibitor, partial curve, poor fit]
CS(=O)(=O)c1ccc2nc(NC(=O)C3C4C=CC(C4)C3C(=O)O)sc2c1 (stereo not drawn)	inactive
CC(C)(C)C(=O)NC(NC(=O)C(C)(C)C)c1ccc([N+](=O)[O-])cc1	inactive
COc1ccccc1C1=NC(c2ccc(C)cc2)N=C1C (stereo not drawn)	inconclusive [inhibitor, partial curve, poor fit]
CCCCNC(=O)c1nc(-c2cc3ccccc3[nH]2)oc1-c1ccccc1	active: 16.4 µM

Structure (SMILES)	Potency
CCCCOc1ccc(C(=O)NCC(=O)NCC(c2ccc(F)cc2)N2CCOCC2)cc1 (stereo not drawn)	inconclusive [inhibitor, partial curve]
Cc1ccc(O)c(N=Nc2ccc(S(=O)(=O)N3CCOCC3)cc2)c1	inactive
Cn1ccc2c(N3CCCCCC3)cc3c(c21)C1CCC3O1 (stereo not drawn)	inconclusive [inhibitor, single point]
CCOC(=O)c1cnc2cc(-c3ccc(C(C)(C)C)cc3)nn2c1N	inconclusive [inhibitor, partial curve]
Cc1nc2cccnc2n1C1CCN(S(=O)(=O)N(C)C)CC1	inconclusive [inhibitor, single point]
COc1ccc(Cl)cc1NC(=O)Cn1c(=O)n(Cc2cccs2)c(=O)c2cccnc21	active: 18.4 µM
N/C(=N\N=C/c1ccc(F)cc1)N/N=C\c1ccc(F)cc1	inconclusive [inhibitor, single point]
O=C(CCN1C(=O)/C(=C/c2ccccc2Cl)SC1=S)NC1CCCC1	active: 9.2 µM
CC(Oc1ccccc1)C(=O)Nc1nnc(C2CCCCC2)s1 (stereo not drawn)	inconclusive [inhibitor, single point]
Cc1cc(C)c(S(=O)(=O)Cc2ccccc2)c(=O)[nH]1	inactive
CC1(C)NC(=O)N(CCOCCOc2ccc3ccccc3c2Br)C1=O	inconclusive [inhibitor, partial curve, poor fit]
COc1ccccc1N1CCN(C(=O)c2ccc(-c3nc4ccccc4s3)o2)CC1	active: 16.4 µM
O=c1c(S(=O)(=O)c2ccc(Cl)cc2)cn(Cc2ccccc2)c2ccc(F)cc12	inconclusive [inhibitor, single point]
Cc1ccccc1N=C1Nc2ccccc2CS1	inconclusive [inhibitor, single point]
COC(=O)c1c(NC(=O)CN2C(=O)C(=O)N(CC(C)C)C2=O)sc(C)c1C	inactive
COc1ccc(CCCc2nnc(SCC(=O)Nc3cc(C)ccc3C)o2)cc1	inconclusive [inhibitor, partial curve]
COC(=O)c1ccccc1NC(=O)c1ccc(COc2cc(C)cc(C)c2)o1	active: 23.1 µM
COC(=O)c1ccc(/C=N/N2CCN(Cc3ccccc3Cl)CC2)cc1	inconclusive [inhibitor, single point]
CCn1c(N2CCN(S(=O)(=O)c3ccc(OC)cc3)CC2)nc2ccccc21	inconclusive [inhibitor, single point]
Cc1cccc(OCCCC(=O)Nc2ccc(Cl)c(S(=O)(=O)N3CCOCC3)c2)c1	active: 11.6 µM
CCOC(=O)c1ccc(NC(=O)C2(c3ccc(Cl)cc3)CCCC2)cc1	inconclusive [inhibitor, single point]
CC1CCN(CCCOc2ccc(OCc3ccccc3)cc2)CC1	inconclusive [inhibitor, single point]
Cc1cccc(C)c1Nc1nnc(SCC(=O)c2ccc(Br)s2)s1	active: 16.4 µM
O=C1c2cc([N+](=O)[O-])ccc2-c2cc(Br)c(N=C(NO)C(F)(F)F)cc21	inconclusive [inhibitor, single point]

From PubChem BioAssay AID686978 (National Center for Advancing Translational Sciences (NCATS), 2013)
